146 sequences from the BET-seq Pho4 binding data (Le et al. 2018) can be followed below.

This is one part of the list. These are noisy estimates, calculated here from bound and input reads.

The assay deals with T1, Pho4 (S. cerevisiae) (UniProt P07270).
T1 sequence: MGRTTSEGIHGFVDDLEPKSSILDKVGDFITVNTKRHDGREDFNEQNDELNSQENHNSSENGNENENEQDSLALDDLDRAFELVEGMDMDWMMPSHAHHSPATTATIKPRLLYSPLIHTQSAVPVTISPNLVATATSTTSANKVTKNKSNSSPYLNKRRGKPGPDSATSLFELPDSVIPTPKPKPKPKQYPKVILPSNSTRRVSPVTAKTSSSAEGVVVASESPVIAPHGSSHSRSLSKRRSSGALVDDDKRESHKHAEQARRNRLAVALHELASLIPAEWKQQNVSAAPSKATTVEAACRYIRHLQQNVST
In words: relative binding free energy (BET-seq); higher = weaker binding. As to conditions: reference: library average.
With GTAGACACGTGTGATT, the “relative binding free energy” value was 0.14 kcal/mol.

Turning to AGATGCACGTGTTGGT, the “relative binding free energy” value turned out to be 0.06 kcal/mol. Then TGCATCACGTGCGTTA, with 0.15 kcal/mol; and TAATACACGTGAGTGT, with 0.18 kcal/mol.

Turning to ATTTGCACGTGCGTGA, the “relative binding free energy” value is -0.11 kcal/mol. Then TACGTCACGTGGGCGG, with -0.08 kcal/mol. Then GTTGTCACGTGCGTAA, with -0.06 kcal/mol; and TGTAGCACGTGGTAGA, with -0.08 kcal/mol; and TGGTACACGTGCTAGG, with -0.12 kcal/mol. Then GTAGTCACGTGCGTCG, with 0.1 kcal/mol.

Regarding GACTTCACGTGTGTTA, the “relative binding free energy” value was 0.31 kcal/mol. With TGTCTCACGTGTAGGA the figure was 0.17 kcal/mol; with AGTGTCACGTGATTCT, 0.08 kcal/mol. Regarding ACAGTCACGTGTTGGA, the “relative binding free energy” value is 0.14 kcal/mol. As to TGTTGCACGTGGGCAA, the “relative binding free energy” value is -0.15 kcal/mol. With AGGGGCACGTGTTCTT the figure was -0.14 kcal/mol; with CTCTTCACGTGGGTGT, 0.13 kcal/mol. As for CTTAGCACGTGAGGTA, the “relative binding free energy” value worked out at 0.14 kcal/mol. Then ATGTCCACGTGGCGTG, with -0.03 kcal/mol; and CTGATCACGTGTGGTA, with 0.13 kcal/mol; and TTGGGCACGTGCAAGT, with -0.1 kcal/mol. With CGGCTCACGTGTCGGT, the “relative binding free energy” value was determined as 0.28 kcal/mol. Consider TCGTTCACGTGTGGAT, for which the “relative binding free energy” value amounted to 0.26 kcal/mol. As for AGGTCCACGTGGGCAG, the “relative binding free energy” value was -0.14 kcal/mol. Then TCTAGCACGTGCTGGT, with -0.15 kcal/mol; and GGATGCACGTGTTGAA, with 0.05 kcal/mol; and GAAGACACGTGATGGT, with 0.32 kcal/mol. In the case of TGGATCACGTGCGGTG, the “relative binding free energy” value worked out at 0.04 kcal/mol. TATTTCACGTGGGTGA: the “relative binding free energy” value worked out at 0.24 kcal/mol. In the case of TTAAGCACGTGTTGAG, the “relative binding free energy” value turned out to be 0 kcal/mol.

For TTGTTCACGTGCGATT, the “relative binding free energy” value was determined as 0.38 kcal/mol. As to TGTAGCACGTGCTAGG, the “relative binding free energy” value was -0.24 kcal/mol. As for AGGGTCACGTGCGGTT, the “relative binding free energy” value is 0.09 kcal/mol.

On to AAGGTCACGTGTTAAG, for which the “relative binding free energy” value turned out to be 0.18 kcal/mol.

For ATAGTCACGTGATGAT, the “relative binding free energy” value turned out to be 0.23 kcal/mol. Then GTCTTCACGTGGTATT, with 0.32 kcal/mol. Then GAAAACACGTGGGGGC, with 0.06 kcal/mol; and GAATTCACGTGTCGTA, with 0.3 kcal/mol; and AATTGCACGTGTGAAG, with 0.08 kcal/mol. With TTGAGCACGTGCATAG the figure was -0.1 kcal/mol. For the sequence GTTTACACGTGAGTTT, the “relative binding free energy” value came out at 0.42 kcal/mol. Then GAGGTCACGTGTGGTT, with 0.23 kcal/mol; and CGTGACACGTGGGGTA, with -0.18 kcal/mol.

Regarding GGTGTCACGTGAGGCT, the “relative binding free energy” value amounted to 0.37 kcal/mol. With AGGAGCACGTGCAAGG, the “relative binding free energy” value was -0.09 kcal/mol. On to AAGTTCACGTGGGAAA, for which the “relative binding free energy” value is 0.27 kcal/mol. Take GAGGGCACGTGGCTTA: the “relative binding free energy” value was -0.08 kcal/mol. On to TCATCCACGTGGTTTG, for which the “relative binding free energy” value was 0.04 kcal/mol.

With GGTTTCACGTGGCAAT, the “relative binding free energy” value was found to be 0.18 kcal/mol. With TTAGCCACGTGAAGGG, the “relative binding free energy” value worked out at 0.2 kcal/mol.

In the case of TTAGGCACGTGTGGCG, the “relative binding free energy” value was -0.15 kcal/mol. As to TGTGGCACGTGTACTC, the “relative binding free energy” value came to 0.06 kcal/mol.

On to AGGGTCACGTGCGGCT, for which the “relative binding free energy” value is -0.05 kcal/mol. With TGTAACACGTGGCATG the figure was -0.08 kcal/mol; with GTGTCCACGTGGAAGT, 0.26 kcal/mol. With ATGGGCACGTGACGGC the figure was 0.01 kcal/mol. Then ATTTTCACGTGGGCCT, with 0.31 kcal/mol. Take TTTTGCACGTGATTAT: the “relative binding free energy” value came to 0.17 kcal/mol. With CGGAGCACGTGATTTT the figure was 0.18 kcal/mol; with TCTATCACGTGTGTTG, 0.1 kcal/mol; with GGAGACACGTGTATGG, -0.08 kcal/mol. Regarding GAGTGCACGTGTTTGG, the “relative binding free energy” value is 0.04 kcal/mol. With TTTGGCACGTGCGCTG the figure was -0.25 kcal/mol; with GTATTCACGTGGTCAG, 0.23 kcal/mol; with GTCAACACGTGTTGTG, 0.05 kcal/mol. With AAGGACACGTGTGAGT the figure was 0.09 kcal/mol; with TGTTTCACGTGTGACA, 0.26 kcal/mol; with CTTAACACGTGATGGT, 0.03 kcal/mol.

In the case of TTATTCACGTGGCTGT, the “relative binding free energy” value was determined as 0.15 kcal/mol. Then GAGGACACGTGGTGAT, with 0.1 kcal/mol. For GCGGGCACGTGTGGTA, the “relative binding free energy” value is -0.1 kcal/mol. As to ATGCTCACGTGGGGTG, the “relative binding free energy” value stood at 0.04 kcal/mol.

ACGGTCACGTGAGGTG: the “relative binding free energy” value stood at 0.21 kcal/mol. As to TGAGTCACGTGAGAGC, the “relative binding free energy” value was 0.41 kcal/mol. Turning to GATACCACGTGAGGGG, the “relative binding free energy” value is 0.14 kcal/mol.

Turning to TGATACACGTGTTAGA, the “relative binding free energy” value is -0.04 kcal/mol. For ATGGGCACGTGGGACA, the “relative binding free energy” value is -0.28 kcal/mol. For AATATCACGTGTGGGA, the “relative binding free energy” value was 0.3 kcal/mol. Then AGGGGCACGTGTATTG, with -0.18 kcal/mol; and AGGCGCACGTGTCAGT, with -0.06 kcal/mol; and GTTGGCACGTGGTTCG, with -0.11 kcal/mol. Then GATAACACGTGGGCGG, with -0.01 kcal/mol; and TTCTACACGTGTTCGG, with 0.15 kcal/mol. As to TCGAACACGTGTTGTT, the “relative binding free energy” value is 0.19 kcal/mol. Then TATGCCACGTGGGATA, with -0.09 kcal/mol; and AGATCCACGTGTAGGG, with 0.02 kcal/mol; and AATGGCACGTGGGCTA, with -0.28 kcal/mol. Regarding TGTGTCACGTGTCATT, the “relative binding free energy” value is -0.02 kcal/mol. Then GAGGGCACGTGCGTAT, with -0.01 kcal/mol; and TATGACACGTGGAATA, with 0.15 kcal/mol; and GATTTCACGTGCGTGA, with 0.33 kcal/mol. Regarding TGTTCCACGTGGGAAG, the “relative binding free energy” value came to 0.11 kcal/mol. With TGCCACACGTGGGGGT the figure was -0.21 kcal/mol; with TGGCGCACGTGATCGT, 0.1 kcal/mol; with GCGCTCACGTGGTGGG, 0.11 kcal/mol.

For the sequence TTGTCCACGTGTGTGA, the “relative binding free energy” value was determined as 0.13 kcal/mol.

As to ACTTACACGTGTGGTG, the “relative binding free energy” value came out at 0.11 kcal/mol. As for TGTTACACGTGCTAAG, the “relative binding free energy” value amounted to 0.03 kcal/mol.

For TGTCCCACGTGTTGGG, the “relative binding free energy” value is -0.14 kcal/mol. With AGTGGCACGTGAAAGG the figure was 0.07 kcal/mol; with TGCGGCACGTGGTAAT, -0.17 kcal/mol.

For the sequence TTATACACGTGCAGGG, the “relative binding free energy” value was -0.15 kcal/mol. With GGCGTCACGTGCTTGT the figure was 0.07 kcal/mol. With TGTTTCACGTGAGATT, the “relative binding free energy” value worked out at 0.31 kcal/mol.

TAAGTCACGTGTGCAG: the “relative binding free energy” value worked out at 0.04 kcal/mol. For GCGGACACGTGTTTGG, the “relative binding free energy” value turned out to be 0.01 kcal/mol. As for GTACTCACGTGTCGGG, the “relative binding free energy” value is 0.32 kcal/mol. Then GTATGCACGTGGAGGT, with 0.06 kcal/mol. On to GAGTCCACGTGGGTTG, for which the “relative binding free energy” value is 0.02 kcal/mol. Then TAATGCACGTGAAAGT, with 0.22 kcal/mol; and CTGATCACGTGGGTAA, with 0.1 kcal/mol. With AGTCGCACGTGTGTGT the figure was 0.04 kcal/mol; with ATAATCACGTGGTGTA, 0.09 kcal/mol. With TTGGGCACGTGGCTAT the figure was -0.17 kcal/mol. In the case of AGGAACACGTGAATGG, the “relative binding free energy” value amounted to 0.22 kcal/mol.

Take TGGATCACGTGTCGGT: the “relative binding free energy” value amounted to 0.28 kcal/mol. Consider CTTGGCACGTGGTGAT, for which the “relative binding free energy” value was -0.17 kcal/mol.

As for AGCTGCACGTGGTAGG, the “relative binding free energy” value was -0.06 kcal/mol. For TCTTGCACGTGTTGTG, the “relative binding free energy” value is -0.01 kcal/mol.

As to TGGTCCACGTGAGGTT, the “relative binding free energy” value was found to be 0.35 kcal/mol. As to TTTTTCACGTGTTACT, the “relative binding free energy” value turned out to be 0.37 kcal/mol.

As to GTCAGCACGTGTGGTT, the “relative binding free energy” value came to 0.03 kcal/mol. Then TTAGTCACGTGTGGCA, with -0.07 kcal/mol; and GTTTCCACGTGTGGTG, with 0.24 kcal/mol; and TTCGTCACGTGGCGTG, with 0.11 kcal/mol. GAGTGCACGTGCATGG: the “relative binding free energy” value is -0.11 kcal/mol. With GTGCTCACGTGGCTTA the figure was 0.3 kcal/mol. Take TATCTCACGTGTTTCG: the “relative binding free energy” value came out at 0.22 kcal/mol. With TTGGACACGTGGAACG the figure was 0.24 kcal/mol; with AACTGCACGTGAGTGG, 0.05 kcal/mol. With ATAGCCACGTGGTGGG the figure was -0.24 kcal/mol; with GAAGTCACGTGGACGG, 0.16 kcal/mol. Take AGCTGCACGTGGGAAG: the “relative binding free energy” value is -0.06 kcal/mol. Then TAGCTCACGTGCTGGG, with 0.15 kcal/mol; and CGGAACACGTGTGTAT, with 0.08 kcal/mol; and ATTGCCACGTGGTTTG, with -0.19 kcal/mol.

With TAGAGCACGTGACGTT, the “relative binding free energy” value was -0.02 kcal/mol.

As for TAGTGCACGTGCCTTG, the “relative binding free energy” value turned out to be 0 kcal/mol. On to GGAAACACGTGGGGAC, for which the “relative binding free energy” value came to 0.11 kcal/mol. Then TGTTGCACGTGTGCTC, with 0.05 kcal/mol. With GAGTACACGTGAGGAG, the “relative binding free energy” value amounted to 0.25 kcal/mol. For GTCAGCACGTGCGTGG, the “relative binding free energy” value is -0.08 kcal/mol.

For the sequence TTTGGCACGTGCGGTG, the “relative binding free energy” value is -0.06 kcal/mol. Then GGTGGCACGTGTTGTA, with -0.03 kcal/mol. Then GTTATCACGTGTGGAA, with 0.21 kcal/mol.

For TTTTTCACGTGTCTAC, the “relative binding free energy” value stood at 0.32 kcal/mol.
